Laboratory results as given in PMC4336329 (PLoS ONE, 2015).
Hit rate of the full screen: of about 310,000 compounds, about 14,000 (4.5%) showed an effect of 50% or more. The effect is printed as a negative number. This is one part of the list.

The molecules below were run against human ether-à-go-go-related gene (hERG) potassium channel (human, UniProt Q12809) (assay: primary screen, population patch clamp on CHO cells stably expressing hERG).
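Further: peak tail current of the secondary pulse compared with the same well before compound.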

Chain of human ether-à-go-go-related gene (hERG) potassium channel (Q12809 whole entry, looked up): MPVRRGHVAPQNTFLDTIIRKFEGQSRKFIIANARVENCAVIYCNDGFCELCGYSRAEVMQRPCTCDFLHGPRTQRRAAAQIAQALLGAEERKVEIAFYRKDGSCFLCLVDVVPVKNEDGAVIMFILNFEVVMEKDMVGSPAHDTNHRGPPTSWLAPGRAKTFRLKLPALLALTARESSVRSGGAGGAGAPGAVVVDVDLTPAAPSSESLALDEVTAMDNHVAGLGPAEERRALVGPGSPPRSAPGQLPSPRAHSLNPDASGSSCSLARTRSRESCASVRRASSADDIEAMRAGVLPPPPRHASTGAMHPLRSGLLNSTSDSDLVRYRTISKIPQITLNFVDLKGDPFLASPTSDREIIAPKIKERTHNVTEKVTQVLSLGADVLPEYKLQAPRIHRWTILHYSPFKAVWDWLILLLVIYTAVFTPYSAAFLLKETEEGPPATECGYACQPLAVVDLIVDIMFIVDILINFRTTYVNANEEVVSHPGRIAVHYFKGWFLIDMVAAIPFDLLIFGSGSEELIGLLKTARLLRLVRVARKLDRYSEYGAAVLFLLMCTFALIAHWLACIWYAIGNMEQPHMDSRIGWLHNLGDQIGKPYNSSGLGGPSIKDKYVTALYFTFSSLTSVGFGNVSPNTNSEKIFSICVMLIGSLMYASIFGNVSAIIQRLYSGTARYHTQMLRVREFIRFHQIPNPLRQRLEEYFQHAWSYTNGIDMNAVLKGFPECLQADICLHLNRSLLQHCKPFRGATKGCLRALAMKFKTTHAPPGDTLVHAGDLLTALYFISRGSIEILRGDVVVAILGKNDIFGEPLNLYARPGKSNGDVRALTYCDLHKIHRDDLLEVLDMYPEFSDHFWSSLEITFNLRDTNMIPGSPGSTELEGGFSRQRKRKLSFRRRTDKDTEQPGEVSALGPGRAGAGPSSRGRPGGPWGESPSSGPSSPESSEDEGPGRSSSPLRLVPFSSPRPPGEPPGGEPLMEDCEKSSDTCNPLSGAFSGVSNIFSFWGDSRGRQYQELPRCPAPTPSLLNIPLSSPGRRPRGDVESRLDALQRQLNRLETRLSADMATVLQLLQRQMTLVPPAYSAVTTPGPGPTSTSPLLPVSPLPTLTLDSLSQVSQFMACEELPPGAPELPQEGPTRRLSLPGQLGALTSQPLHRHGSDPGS

SMILES | hERG current change (%, negative = inhibition) at 10uM [%]
O=C1NC(NS(=O)(=O)c2ccccc2)(C(F)(F)F)C(=O)N1Cc1ccccc1 (stereo not shown) | 12.2
O=Nc1ccc(NOC(=O)c2ccccc2)cc1 | 5.89
COc1ccc(-c2nnc(NC(=O)c3ccc(S(=O)(=O)N4COCC4(C)C)cc3)o2)cc1 | -3.37
CCN1CCN(CC(=O)Nc2ccc(Cl)c(S(=O)(=O)N(C)C)c2)CC1 | -1.96
Cc1ccc(C(=O)Nc2ccc3nc(C)sc3c2)s1 | 22.2
Cc1cc2ncc(S(=O)(=O)C(C)(C)C)c(N)n2n1 | 26.7
COc1ccc(OC)c(-c2csc(NC(=O)CN3C(=O)C4CCCCC4C3=O)n2)c1 (stereo not shown) | -0.554
O=C(O)c1cc(=O)c2ccccc2o1 | 24
Cn1c(=O)[nH]c(=O)c2c1nc(N1CCOCC1)n2CC(O)COc1ccccc1 (stereo not shown) | 6.81
Cl.Cn1c(O)c(C=NCCCN2CCCC2=O)c(=O)n(C)c1=O.O=C(O)C(=O)O | 19
CC(SCc1cn2cc(Cl)ccc2n1)C(=O)O (stereo not shown) | -1.51
CC(C)CN1CCN(Cc2cccc3cccnc23)CC1CCO (stereo not shown) | 6.58
C[C@@H]1Cc2c(O)c(O)cc(O)c2C(=O)O1 | 12.4
CCOC(=O)C1CCCN(C(=O)C2CCCN(S(C)(=O)=O)C2)C1 (stereo not shown) | 1.81
CCc1ccc(S(=O)(=O)Nc2c(NC3CCCCC3)c3ccccc3oc2=O)cc1 | -3.7
COC(=O)C1=CN(C2CC2)C=C(C(=O)OC)C1c1ccc(C(=O)OC)cc1 | 17.9
Cc1ccc(NC(=O)c2cc(S(=O)(=O)N3CCOCC3)cn2C)cc1F | -20
CC(=O)OCC1(C)CN(c2ccccc2)N(C(C)=O)C1=O (stereo not shown) | 2.34
C=CCN1C(=S)CC(c2ccccc2)=Nc2ccccc21 | 15.3
O=C1Cn2c(nc3ccccc32)N1c1ccccc1F | -4.86
COc1cccc(N2CCN(C(C)C(=O)NC34CC5CC(CC(C5)C3)C4)CC2)c1 (stereo not shown) | -6.39
CC1CN(C(=O)COC(=O)CSc2ccc(C(N)=O)cc2[N+](=O)[O-])CC(C)O1 (stereo not shown) | -2.1
COc1ccc(N2CC(C(=O)N/N=C/c3c[nH]c4ccccc34)CC2=O)cc1 (stereo not shown) | 7.94
CN(C(=O)COC(=O)c1sc2ccccc2c1Cl)C1CCCCC1 | -4.05
CC1C(=O)N2CCCc3cc(NS(C)(=O)=O)cc1c32 (stereo not shown) | 10.3
